Measured values from paper PMC4336329 (PLoS ONE, 2015).
Hit rate of the full screen: of about 310,000 compounds, about 14,000 (4.5%) showed an effect of 50% or more. The effect is printed as a negative number. The list shows a part of the results.

molecular target: human ether-à-go-go-related gene (hERG) potassium channel (human, UniProt Q12809); assay: primary screen, population patch clamp on CHO cells stably expressing hERG
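Note: peak tail current of the secondary pulse compared with the same well before compound.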

Chain of human ether-à-go-go-related gene (hERG) potassium channel (Q12809 whole entry, looked up): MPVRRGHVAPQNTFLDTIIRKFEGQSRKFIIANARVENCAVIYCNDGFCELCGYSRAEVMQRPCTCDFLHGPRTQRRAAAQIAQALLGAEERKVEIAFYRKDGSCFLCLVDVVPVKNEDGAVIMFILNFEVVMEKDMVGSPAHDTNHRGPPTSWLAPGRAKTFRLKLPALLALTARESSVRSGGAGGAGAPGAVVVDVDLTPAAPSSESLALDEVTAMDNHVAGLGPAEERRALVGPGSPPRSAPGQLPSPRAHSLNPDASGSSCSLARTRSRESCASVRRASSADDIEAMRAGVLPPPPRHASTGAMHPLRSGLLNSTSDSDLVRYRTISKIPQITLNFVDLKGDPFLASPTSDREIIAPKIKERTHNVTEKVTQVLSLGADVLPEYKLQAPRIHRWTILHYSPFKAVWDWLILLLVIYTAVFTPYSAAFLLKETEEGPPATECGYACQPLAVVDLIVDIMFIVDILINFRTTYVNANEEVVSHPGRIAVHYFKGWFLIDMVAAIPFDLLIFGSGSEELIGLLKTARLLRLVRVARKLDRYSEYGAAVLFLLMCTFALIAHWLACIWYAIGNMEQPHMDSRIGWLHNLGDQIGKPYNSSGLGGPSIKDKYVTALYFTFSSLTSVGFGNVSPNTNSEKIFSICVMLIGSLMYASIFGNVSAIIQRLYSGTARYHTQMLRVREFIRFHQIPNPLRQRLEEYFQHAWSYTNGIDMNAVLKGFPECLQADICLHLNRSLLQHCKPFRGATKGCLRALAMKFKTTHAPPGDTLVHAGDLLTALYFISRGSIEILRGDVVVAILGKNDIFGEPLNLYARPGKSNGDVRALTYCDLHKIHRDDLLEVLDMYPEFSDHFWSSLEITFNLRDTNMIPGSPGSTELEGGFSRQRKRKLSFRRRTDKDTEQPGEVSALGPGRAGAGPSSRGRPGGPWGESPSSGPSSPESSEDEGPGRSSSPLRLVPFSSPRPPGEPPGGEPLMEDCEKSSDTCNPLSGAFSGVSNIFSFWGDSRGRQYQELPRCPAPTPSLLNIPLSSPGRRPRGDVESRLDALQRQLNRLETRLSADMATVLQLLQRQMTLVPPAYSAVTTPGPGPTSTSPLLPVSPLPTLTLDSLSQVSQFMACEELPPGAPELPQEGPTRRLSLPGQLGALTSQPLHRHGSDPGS

| SMILES | hERG current change (%, negative = inhibition) at 10uM [%] |
| --- | --- |
| Nc1nc2nc(-c3cccs3)cc(C(F)(F)F)n2n1 | 14 |
| O=C(O)c1ccc(S(=O)(=O)c2ccc3c(c2)C(=O)N(NC(=O)c2ccc(O)cc2)C3=O)cc1 | -3.45 |
| COc1ccc(CNC(=O)C2COc3ccccc3O2)cc1 (centres unmarked) | 2.57 |
| COCCCn1cc(C(=O)c2cc(OC)ccc2OCC(=O)N2CCCCC2C)cc(C#N)c1=O (centres unmarked) | -22.9 |
| CC(=O)N1c2ccc(S(=O)(=O)N3CCCC3C(=O)NCc3ccc(Cl)cc3)cc2CC1C (centres unmarked) | -62.9 |
| CC(C)OP(=O)(OC(C)C)C(O)c1ccc(Br)cc1 (centres unmarked) | -2.31 |
| Cn1c(=O)oc2cc(S(=O)(=O)NCCC(=O)NC3CCCC3)ccc21 | 0.447 |
| CC(=O)c1cccc(NC(=S)NC(=O)CC(C)C)c1 | 0.0132 |
| COC(=O)c1[nH]c2c(c1C)C(=O)CC(c1cc(OC)ccc1OC)C2 (centres unmarked) | 5.02 |
| Cc1ccc(OCc2nc(C#N)c(NCCCn3ccnc3)o2)cc1 | -56 |
| CCc1ccc(-c2cn(-c3nc(C)cc(C)n3)c(=N)o2)cc1 | -71.8 |
| COc1ccc(OC)c(NC(=O)CCCSc2ccccc2)c1 | -13.9 |
| COc1cccc(NC(=O)CN2CCN(S(=O)(=O)c3ccc(F)cc3)CC2)c1 | -23.1 |
| CC(C)(C)c1ccc(Oc2ccc(N)cn2)cc1 | -5.07 |
| C[n+]1ccc(C(=O)NCCC[N+](C)(C)C)cc1/C=N/O.[Cl-] | 37.3 |
| O=C(Nc1ccc2c(c1)OCO2)[C@@H]1[C@@H]2C(=O)N(C3CCCCC3)C(=O)[C@@H]2C2c3ccccc3C=CN21 (some centres unmarked) | -11.1 |
| Cc1ccc(NC(=O)CSc2nc3nc(C)c(Br)cc3[nH]2)cc1F | 13.7 |
| N#Cc1cnn(-c2ncnc3sc(-c4ccccc4)cc23)c1N | -2.64 |
| COc1ccc(-n2c(Cc3cc(=O)[nH]c(=O)[nH]3)nnc2SCC(=O)N2CCCC2)cc1 | -14 |

| SMILES | hERG current change (%, negative = inhibition) at 10uM [%] |
| --- | --- |
| COc1cc(OC)cc(OC(=O)c2ccc3c(=O)n4c(nc3c2)CCC4)c1 | -14.1 |
| c1ccc(CCn2c3ccccc3c3nnc(SCc4ccc5nonc5c4)nc32)cc1 | -3.93 |
| COc1ccc(Cl)cc1N(CC(=O)Nc1ccccc1C(=O)N1CCOCC1)S(C)(=O)=O | -1.4 |
| O=C(Nc1nc(COc2ccccc2)cs1)C12CC3CC(CC(C3)C1)C2 | -2.42 |
| O=C(Nc1ncnc2sc3c(c12)CCCCC3)c1ccco1 | -5.5 |
| COC(=O)C1=C(N)Oc2cc(C)oc(=O)c2C12C(=O)Nc1ccccc12 (centres unmarked) | 24.5 |
| Nc1ncnc(Nc2cccc(C(F)(F)F)c2)n1 | -5.45 |
| O=C(COc1ccccc1[N+](=O)[O-])N(Cc1cccc(Br)c1)C1CCS(=O)(=O)C1 (centres unmarked) | -57.8 |
| Cn1c(=O)oc2cc(S(=O)(=O)N3CCN(Cc4ccc5c(c4)OCO5)CC3)ccc21 | -37.3 |
| O=C(CSc1nc2ccccc2o1)NCC1CCCO1 (centres unmarked) | -35 |
| Cc1cc(C(F)(F)F)nc(-n2cc(-c3cccc(N)c3)nn2)n1 | 1.83 |
| CCCC(=O)Nc1nn(CC)c2nc3ccc(C)cc3cc12 | -1.93 |
| COc1ccc(S(=O)(=O)N(C)CC(=O)N2CCCC2)cc1OC | 13 |
| COc1cccc(-c2cc(C(=O)N3CCc4ccccc4C3)[nH]n2)c1 | 15.1 |
| COC(=O)C1=C(N)Oc2cc(C)[nH]c(=O)c2C1c1ccncc1 (centres unmarked) | 8.32 |
| COc1cc(C(=O)Nc2c(C(=O)N3CCOCC3)oc3ccccc23)cc(OC)c1OC | -10 |
| CC(C)OC(=O)CN1C(=O)S/C(=C/c2ccc(N3CCCCC3)o2)C1=O | -6.27 |
| O=C(CCCN1C(=O)/C(=C\c2cccs2)SC1=S)Nc1cc([N+](=O)[O-])ccc1O | 34.5 |
| CCOC(=O)C1=C(c2ccccc2)N=C2SCC(=O)N2C1c1ccc(OC)c(OC)c1 (centres unmarked) | -11.9 |

| SMILES | hERG current change (%, negative = inhibition) at 10uM [%] |
| --- | --- |
| CCN(c1ccccc1)S(=O)(=O)c1nnc(NC(=O)C(C)(C)C)s1 | 13.9 |
| COc1cc2ccccc2cc1C(=O)Nc1nccs1 | 0.854 |
| Cc1cccc(N2CCN(C(=O)c3ccc4c(c3)NC(=O)C(CSCc3cccc(F)c3)N4)CC2)c1C (centres unmarked) | 15.9 |
| Cc1ccc2nc(SCC(=O)NCc3ccco3)[nH]c2c1 | -0.695 |
| O=C(CN1C(=O)c2cccnc2Oc2ccc(Cl)cc21)N1CCOCC1 | 14.9 |
| O=c1cc(N2CCOCC2)[nH]c(=O)n1-c1ccc(Br)cc1 | 17.2 |
| C/C(=N\OCc1ccc(C#N)cc1)c1ccc(S(=O)(=O)N(C)C)cc1 | -52.7 |
| Cc1c([N+](=O)[O-])c([N+](=O)[O-])nn1CC(=O)NCc1cccnc1 | 12.3 |
| CCOC(=O)N1CCN(c2ncnc3c2[nH]c2ccc(OC)cc23)CC1 | -44.1 |
| Brc1ccc2[nH]cc(/C=N/N3CCCCC3)c2c1 | 6.01 |
| NS(=O)(=O)c1ccc(-n2cccc2C=O)cc1 | 30.7 |
| CN1CCN(C(=O)c2ccc(C(F)(F)F)cc2)CC1.Cl | 26.7 |
| COc1ccc(Cl)c(Cn2c(NCCCN(C)C)nc3c2c(=O)n(C)c(=O)n3C)c1 | -34.1 |
| c1ccc(CN2CCC3(CC2)Nc2ccccc2CO3)cc1 | -21.9 |
| O=C(c1ccccc1F)N1CCN(c2ccc([N+](=O)[O-])c(N3CCOCC3)c2)CC1 | 14.2 |
| O=C(O)c1cc2ccccc2c(=O)s1 | 12.6 |
| COc1cc(C(=O)NCCOc2ccccc2)cc(OC)c1OC | 12.9 |
| Cc1ccc(OCC(O)CNCc2ccc(F)cc2)cc1 (centres unmarked) | -40.5 |
